{"source": "PubChem BioAssay AID651820", "about": "(National Center for Advancing Translational Sciences (NCATS), 2012)", "note": "Screen size: about 340,000 compounds; about 12,000 (3.5%) were called active. Inconclusive means that the source gave no clear call. Such entries were picked first, then a sample of the others. Calls come from the whole dose curve; as a rule, active = well fitted inhibition curve with a large enough effect; inconclusive = small, poorly fitted or top-dose-only effect, or another doubt; inactive = no such curve, though single readings can be large or run the other way. No potency is given beside an inconclusive call; the fits are too rough. % is set by controls: 0 for no effect and ±100 for the full control effect; potency is the fitted concentration of half-maximal effect; tags give direction and shape of the fitted curve."}
{"assay": "qHTS Assay for Inhibitors of Hepatitis C Virus (HCV)", "details": "Huh7.5.1 HCVcc-Cre (HCVcc is cell-culture hepatitis C virus) infection, luciferase reporter, 44 h; activity change, negative = inhibition: at 41.8 µM (top of the series)", "outline": "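Cells seeded at 1,000/well and cultured 4 h, then compounds added followed by HCVcc-Cre virus (~0.5 moi). After 44 h further culture, luciferase substrate was added, plates held 15 min at room temperature, and luminescence read for 15 sec.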"}
{"compound": "COc1ccc(C(=O)C[n+]2ccc3c(c2)nc(-c2ccc(OC)cc2OC)n3C)cc1", "activity change, negative = inhibition": "inactive: 14.6%"}
{"compound": "C[C@@H](CN=[N+]=[N-])CN1CC[C@H](NC(=O)OCc2ccccc2)CCC1=O", "activity change, negative = inhibition": "inactive: -6.57%"}
{"compound": "Cc1sc2ncn(CCn3cnc4sc(C)c(C)c4c3=O)c(=O)c2c1C", "Potency": "inconclusive [inhibitor, single point]"}
{"compound": "CCOC(=O)Cc1ccc(NC(=O)c2ccc(C(C)(C)C)cc2)cc1", "Potency": "active: 7.08 µM"}
{"compound": "O=C(N/N=C/c1ccc(Cl)c([N+](=O)[O-])c1)C1CC1", "Potency": "inconclusive [inhibitor, single point]"}
{"compound": "O=C(NC1CCN(Cc2ccccc2)CC1)c1ccc(S(=O)(=O)NCc2ccco2)cc1", "Potency": "active: 3.98 µM"}
{"compound": "Cn1c(=O)c2cc(S(=O)(=O)NC(C(=O)N3CCCCCC3)c3ccccc3)ccc2n(C)c1=O", "note": "(centres undefined)", "activity change, negative = inhibition": "inactive: 14.3%"}
{"compound": "O=C(NCCN1CCCCCC1)c1ccc(N2CCCC2=O)cc1", "Potency": "inconclusive [inhibitor, single point]"}
{"compound": "COc1ccccc1NC(=O)C1CCN(S(=O)(=O)c2ccc3c(c2)NC(=O)C(C)S3)CC1", "note": "(centres undefined)", "Potency": "inconclusive [inhibitor, single point]"}
{"compound": "NS(=O)(=O)c1ccc(CCNc2nc(C(F)(F)F)nc3ccccc23)cc1", "Potency": "inconclusive [inhibitor, partial curve]"}
{"compound": "O=C(NCc1ccc(OC(F)(F)F)cc1)C12CN(Cc3ccccc3)CC1C(c1cccc([N+](=O)[O-])c1)=NO2", "note": "(centres undefined)", "Potency": "inconclusive [inhibitor, partial curve, poor fit]"}
{"compound": "COCCCN1CCN(C2Cc3ccccc3Sc3ccc(Cl)cc32)CC1", "note": "(centres undefined)", "activity change, negative = inhibition": "inactive: -15.1%"}
{"compound": "O=C(Nc1ccc(F)c([N+](=O)[O-])c1)c1cccs1", "activity change, negative = inhibition": "inactive: -17.7%"}
{"compound": "COC(=O)c1ccc(C2c3[nH]c4ccccc4c3C[C@H]3C(=O)N(C4CC4)CC(=O)N23)cc1", "note": "(some centres undefined)", "activity change, negative = inhibition": "inactive: -5.96%"}
{"compound": "CCOCCCNC(=O)C1(O)c2ccccc2NC(=O)N1c1ccc(Cl)cc1", "note": "(centres undefined)", "activity change, negative = inhibition": "inactive: 12.4%"}
{"compound": "CCCCC(=O)OCc1nc2ccccc2s1", "activity change, negative = inhibition": "inactive: -6.43%"}
{"compound": "CCc1ccc(C(=O)OCC(=O)N(CCOC)c2c(N)n(Cc3ccccc3)c(=O)[nH]c2=O)cc1", "Potency": "inconclusive [inhibitor, partial curve]"}
{"compound": "CC(C)N(C(=O)[C@H]1C[C@H](CC(=O)NC(C)(C)C)C(=O)N2CCc3c([nH]c4cc(CCC(=O)N(C)C)ccc34)[C@]12C)C(C)C", "Potency": "active: 0.501 µM"}
{"compound": "Cc1ccccc1Cn1cc(S(=O)(=O)c2ccc(C(C)C)cc2)c(=O)c2cc3c(cc21)OCO3", "Potency": "active: 10 µM"}
{"compound": "Cc1cccc(-n2ncc3c(N4CCCc5ccccc54)ncnc32)c1", "Potency": "inconclusive [inhibitor, full curve]"}
{"compound": "Cc1nc2ccccc2c(=O)n1/N=C/c1ccc(C(C)C)cc1", "Potency": "active: 25.1 µM"}
{"compound": "CCOc1cccc(CNCCO)c1OCc1ccc(Cl)cc1Cl", "Potency": "inconclusive [inhibitor, single point]"}
{"compound": "C=CCn1cc(C(=O)NCc2ccco2)c(=O)c2cc(S(=O)(=O)N3CCCCCC3)ccc21", "Potency": "inconclusive [inhibitor, full curve]"}
{"compound": "CCOc1ccc(CCNC(=O)CS(=O)Cc2nc(-c3ccccc3C)oc2C)cc1OCC", "note": "(centres undefined)", "Potency": "inconclusive [inhibitor, partial curve]"}
{"compound": "Cc1cc(NC(=O)CSc2nnc(-c3ccc(S(=O)(=O)N4CCCC4)cc3)n2C)no1", "Potency": "inconclusive [inhibitor, partial curve]"}
{"compound": "COc1ccccc1N(C)S(=O)(=O)c1ccc(Cl)c(C(=O)NNC(=O)c2ccccc2O)c1", "Potency": "inconclusive [inhibitor, single point]"}
{"compound": "COc1ccc(NS(=O)(=O)c2ccc3ccccc3c2)c2ncccc12", "Potency": "inconclusive [inhibitor, single point]"}
{"compound": "Clc1ccccc1CN(Cc1ccco1)Cc1nnnn1C1CCCC1", "Potency": "active: 10 µM"}
{"compound": "Cc1nn(C)c(C(=O)NC(=S)Nc2ccc([N+](=O)[O-])cc2)c1Cl", "Potency": "inconclusive [inhibitor, single point]"}
{"compound": "Clc1ccc2c(c1)C(C1=NCCN1)c1ccccc1CS2", "note": "(centres undefined)", "Potency": "inconclusive [inhibitor, partial curve]"}
{"compound": "O=C(CN1C(=O)NC2(CCCCCCC2)C1=O)NCc1ccc2c(c1)OCO2", "Potency": "inconclusive [inhibitor, single point]"}
{"compound": "O=Cc1[nH]c2ccccc2c1N(C(=O)CCl)c1ccc([N+](=O)[O-])cc1", "Potency": "inconclusive [inhibitor, partial curve]"}
{"compound": "CC(C)(C)c1ccc(C(=O)Oc2ccc3c(c2)OCC3=O)cc1", "activity change, negative = inhibition": "inactive: 2.79%"}
{"compound": "CCOC(=O)c1c(C)n(C)c2ccc(OC)c(NC(=O)CN3CCN(C(=O)c4ccco4)CC3)c12", "activity change, negative = inhibition": "inactive: 7.31%"}
{"compound": "COc1ccc(-c2cc(-c3ccc(OC)c(OC)c3)n[nH]2)c(O)c1", "Potency": "inconclusive [inhibitor, single point]"}
{"compound": "COc1cc(-c2nnc3sc(-c4cccs4)nn23)cc(OC)c1OC", "Potency": "inconclusive [inhibitor, partial curve]"}
{"compound": "COc1ccc(O)c(-c2nc(N)nc(N)n2)c1", "activity change, negative = inhibition": "inactive: -6.26%"}
{"compound": "COc1ccc(/C=N\\N=C(N)N)cc1", "Potency": "inconclusive [inhibitor, partial curve, poor fit]"}
{"compound": "COc1ccccc1/C=C/[C@@H]1C[C@H]2CN(Cc3cccc(Cl)c3)C(=O)[C@]23CCCN13", "Potency": "inconclusive [inhibitor, partial curve]"}
{"compound": "CCOC(=O)C1=C(CC)Nc2ccccc2N=C1NC(=O)c1ccc(OC)c(S(=O)(=O)N2CCCCC2C)c1", "note": "(centres undefined)", "Potency": "inconclusive [inhibitor, single point]"}
{"compound": "O=C(Cc1ccccc1Cl)NNC(=O)Nc1ccccc1", "activity change, negative = inhibition": "inactive: 30.2%"}
{"compound": "O=C(c1ccc(Cl)cc1)C1CCCN(Cc2cccc3cnccc23)C1", "note": "(centres undefined)", "Potency": "inconclusive [inhibitor, single point]"}
{"compound": "O=S(=O)(Nc1cccc(CCc2ccccn2)c1)c1ccc(Cl)cc1", "Potency": "inconclusive [inhibitor, single point]"}
{"compound": "CCOc1ccc(C(O)c2nccn2C)cc1", "note": "(centres undefined)", "activity change, negative = inhibition": "inactive: 4.36%"}
